Laboratory results taken from the supplement of paper PMC7826260.
The other results are listed elsewhere or left out. One pool of 16,384 single-stranded DNAs met each Rep nickase domain in vitro (3 µM enzyme, 1 h, 37 °C); shown is the middle of each 90-letter strand. A value is the log2 ratio of uncut reads to the pool without enzyme; strong cutting gives strongly negative numbers. There is no active / inactive call. Counts are relative to all reads; uncut strands gain when others are lost, and binding without cutting may add a little.

Legend:
Test in all cases: uncleaved DNA left, log2 of reads against the no-enzyme library (log2 ratio); higher = less cleavage (more negative = more Rep cleavage of the k-mer); sequences stand for … in CTCGTCCG…ACCGGAGA
[1] = system: T1, Rep nickase domain of Muscovy duck circovirus
T1 sequence (Rep 1-111, printed without the tag): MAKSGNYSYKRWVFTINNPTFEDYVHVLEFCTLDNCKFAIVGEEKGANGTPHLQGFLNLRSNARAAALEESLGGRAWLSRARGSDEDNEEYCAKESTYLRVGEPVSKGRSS
Description: (§1)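 A pool of 90-nt single-stranded DNAs with seven random bases just before the constant AC of the nick site (name = the seven bases) was cut by 3 µM recombinant His6-SUMO-tagged Rep nickase domain (300 nM DNA, 50 mM HEPES pH 8.0, 50 mM NaCl, 1 mM MnCl2, 1 h, 37 °C, three replicates). Uncut DNA was amplified and sequenced.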

[2] = system: T2, Rep nickase domain of banana bunchy top virus
T2 sequence (Rep 1-94, printed without the tag): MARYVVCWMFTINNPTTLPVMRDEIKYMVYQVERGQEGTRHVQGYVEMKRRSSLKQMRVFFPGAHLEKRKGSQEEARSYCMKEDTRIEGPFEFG
Description: as §1

[3] = system: T3, Rep nickase domain of cabbage leaf curl virus
T3 sequence (Rep 1-116, printed without the tag): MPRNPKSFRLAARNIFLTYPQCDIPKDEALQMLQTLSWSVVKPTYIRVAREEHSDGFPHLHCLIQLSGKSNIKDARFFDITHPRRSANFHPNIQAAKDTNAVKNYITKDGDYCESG
Description: as §1

[4] = system: T4, Rep nickase domain of chickpea chlorotic dwarf virus
T4 sequence (Rep 1-124, printed without the tag): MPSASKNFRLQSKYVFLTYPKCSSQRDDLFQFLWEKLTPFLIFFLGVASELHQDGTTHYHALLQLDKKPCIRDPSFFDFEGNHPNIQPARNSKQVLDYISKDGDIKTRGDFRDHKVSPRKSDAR
Description: as §1

[5] = system: T5, Rep nickase domain of faba bean necrotic yellows virus
T5 sequence (Rep 1-98, printed without the tag): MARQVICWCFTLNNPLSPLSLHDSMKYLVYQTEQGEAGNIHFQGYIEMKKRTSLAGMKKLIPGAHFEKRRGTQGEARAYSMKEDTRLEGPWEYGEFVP
Description: as §1

[6] = system: T6, Rep nickase domain of maize striate mosaic virus
T6 sequence (Rep 1-117, printed without the tag): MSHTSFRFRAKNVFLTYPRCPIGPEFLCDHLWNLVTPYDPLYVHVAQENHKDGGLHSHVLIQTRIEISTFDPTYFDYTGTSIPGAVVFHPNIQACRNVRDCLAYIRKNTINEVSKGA
Description: as §1

[7] = system: T7, Rep nickase domain of porcine circovirus 2
T7 sequence (Rep 2-116, printed without the tag): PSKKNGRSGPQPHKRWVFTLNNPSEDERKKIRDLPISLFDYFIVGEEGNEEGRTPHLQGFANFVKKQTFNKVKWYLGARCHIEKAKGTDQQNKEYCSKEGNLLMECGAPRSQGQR
Description: as §1

[8] = system: T8, Rep nickase domain of tomato golden mosaic virus
T8 sequence (Rep 1-124, printed without the tag): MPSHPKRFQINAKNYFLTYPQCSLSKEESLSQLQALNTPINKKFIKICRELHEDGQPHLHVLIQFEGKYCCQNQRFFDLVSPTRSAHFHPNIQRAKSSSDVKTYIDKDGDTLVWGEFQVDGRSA
Description: as §1

[9] = system: T9, Rep nickase domain of tomato yellow leaf curl virus
T9 sequence (Rep 1-136, printed without the tag): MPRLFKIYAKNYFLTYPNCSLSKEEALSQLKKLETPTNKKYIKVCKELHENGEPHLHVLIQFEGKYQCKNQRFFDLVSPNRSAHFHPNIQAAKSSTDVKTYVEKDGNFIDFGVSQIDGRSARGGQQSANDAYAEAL
Description: as §1

[10] = system: T10, Rep nickase domain of wheat dwarf virus
T10 sequence (Rep 1-137, printed without the tag): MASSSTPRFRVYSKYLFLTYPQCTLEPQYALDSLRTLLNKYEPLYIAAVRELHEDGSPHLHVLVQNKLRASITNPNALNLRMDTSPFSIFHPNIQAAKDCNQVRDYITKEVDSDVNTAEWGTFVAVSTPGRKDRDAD
Description: as §1

Sequence | uncleaved DNA left (log2) [1] | uncleaved DNA left (log2) [2] | uncleaved DNA left (log2) [3] | uncleaved DNA left (log2) [4] | uncleaved DNA left (log2) [5] | uncleaved DNA left (log2) [6] | uncleaved DNA left (log2) [7] | uncleaved DNA left (log2) [8] | uncleaved DNA left (log2) [9] | uncleaved DNA left (log2) [10]
CCGCTCT | 0.0649 | -0.00293 | -0.0488 | -1.44 | 0.152 | -0.337 | -0.171 | -0.157 | -0.152 | 0.0262
CACCTGT | -0.00891 | -0.0127 | -0.148 | -0.907 | 0.00936 | -0.448 | -0.387 | -0.157 | 0.0275 | 0.0188
ATAGCTC | 0.00696 | -0.127 | -0.0686 | -0.553 | 0.0109 | -0.515 | -0.0282 | -0.049 | -0.122 | -0.142
CCGTATG | 0.213 | 0.17 | -0.135 | -0.195 | 0.174 | -0.49 | 0.283 | 0.104 | 0.134 | 0.0082
ATACCTT | 0.0209 | 0.0664 | -0.0902 | -2.1 | 0.131 | -0.0271 | -0.509 | 0.0355 | 0.0396 | 0.108
TAGCTAG | 0.0802 | -0.0662 | -0.173 | -0.0911 | -0.0281 | -0.706 | 0.202 | 0.0196 | -0.0607 | -0.0598
ACTTTCC | -0.0852 | 0.0947 | 0.00445 | -0.216 | 0.129 | -0.484 | -0.114 | 0.00841 | -0.0715 | 0.103
TACAACC | -0.0979 | 0.002 | -0.145 | -2.42 | 0.0529 | -0.621 | -0.887 | 0.0502 | 0.0252 | 0.111
GGGTCGG | 0.124 | 0.0958 | 0.875 | 1.9 | -0.00908 | 2.28 | 0.273 | 0.111 | 0.0279 | 0.215
TGTGTAC | 0.0434 | 0.00335 | 0.323 | 0.68 | -0.0586 | 1.54 | 0.0776 | 0.0856 | 0.0754 | 0.0659
GATGCGC | 0.0915 | -0.0481 | -0.763 | 0.257 | -0.00136 | -0.704 | 0.0852 | 0.00596 | 0.000662 | -0.0651
GATTACT | -3.14 | -2.91 | -0.446 | -2.52 | -1.4 | 0.474 | -3.11 | -0.652 | 0.0731 | -0.111
TGATCCA | -0.0408 | 0.0117 | 0.114 | -0.402 | 0.00274 | 0.298 | -0.122 | -0.102 | -0.0357 | -0.0787
CTACGAC | 0.0291 | -0.0395 | 0.0445 | -1.08 | 0.0433 | -0.497 | 0.106 | -0.018 | -0.0585 | -0.0911
ATGGTAG | -0.111 | -0.0293 | -0.618 | -0.449 | 0.0675 | -1.16 | 0.218 | -0.0315 | 0.0284 | -0.0774
